Experimental findings from the RNAGym collection of RNA variant scans (doi:10.7554/elife.90254) are described below.

Read counts are not given, so values of variants with three or more changes are uncertain.

Sequences and labels used below:
B1: LINE1-mini (parent)
chain: GGCAGAGCUCAACACAGCGUGGCAAAGUGGCUGUGGCUAGACUGCC

The variants in this data set derive from B1. As to the kind of experiment: self-cleavage, relative activity (ratio to wild type); higher = more cleavage; in vitro, sequencing; the parent is a self-cleaving ribozyme.
As for GGCAGAGCUCAACAGAGCGCGGCAAAGUGGCUGAGACUAAACUGCC, the self-cleavage turned out to be 0.13.

On to GGCAGAGCUCAACAGAGCGUGGCAAAGUGGCUGUGCCUAGACUCCC, for which the self-cleavage came out at 0.02.

GGCAGAGCUCAACAGAGCGUGUCAAAGUGGCUGUGGCUAGCCUGCA: the self-cleavage was 0.

As to GGCAGAGCUCAACAGAGCGUGGCAAAGUGGCUGUUGGUAGACUGCC, the self-cleavage turned out to be 0.01.

Regarding GGCAGAGCUCAACAUAGCGUGGCAAAGUGGCUGUGGCUUGAGUGCC, the self-cleavage was found to be 0.05.

With GGCAGAGCUCAACAUAGUGUGGAAUAGUGACUGUGGCUAGAUUGCC, the self-cleavage amounted to 0.65.

In the case of GGCAGAGCUCAACAUAGGGUGGCAAAGUGGGUCUGGUUAGAUUGCC, the self-cleavage stood at 0.06.

As to GGCAGAGCUCAACAGAGCGUGGCAAAGUGGCUGUUGCUAAACUGCU, the self-cleavage turned out to be 0.01.

Turning to GGCAGAGCUCAACAUAGCGUGGCAACGUGGCUGUGGCUAGAGUGCA, the self-cleavage was 0.12.

Take GGCAGAGCUCAACAGAGCGUGGCAAAGUGGCCGCGGCUAGACUGCC: the self-cleavage was found to be 0.05.

Regarding GGCAGAGCUCAACAGAGCGUGGCAAAGUGUCUGUGACUCGACUGAC, the self-cleavage came to 0.02.

Regarding GGCAGAGCUCAACAGAGCGUGGCAAAGUGGCUCUGGCUAGACUGUC, the self-cleavage turned out to be 1.18.

As to GGCAGAGCUCAACAGAGCGAGGCAAAGUGGCUGUGGCUACACUGCC, the self-cleavage worked out at 0.02.

Regarding GGCAGAGCUCAACAUUGCGUCGCAAAGUGGCUGUGGCUAUACUGCC, the self-cleavage was 0.

As to GGCAGAGCUCAACAGAGCGUGGCAAAGUUGCUGUGGCGUGACUGCC, the self-cleavage stood at 0.02.

For the variant GGCAGAGCUCAACAUCGUGUCGCAAAGAGGCUGAAGCUAGACUGCC, the self-cleavage came to 0.14.

For the variant GGCAGAGCUCAACAGAGCGUGGCAAAGUGGCUGUUAAUAGACUUCC, the self-cleavage turned out to be 0.01.

Turning to GGCAGAGCUCAACAGAGCGUGGCAAAGUUGCUGUGGCUAGAAUGCC, the self-cleavage was 0.02.

GGCAGAGCUCAACAUCGCGUGGCAAAGUGGCUGUGGCUAGACUACC: the self-cleavage amounted to 0.08.

Regarding GGCAGAGCUCAACAUCGCGUGGCAAAGUGGCUGUAGCAAGACUGCC, the self-cleavage came to 0.01.

For GGCAGAGCUCAACAUAGGGUGGCAAAGUGGCUGUGGCUAGACUGCG, the self-cleavage worked out at 0.02.

With GGCAGAGCUCAACAGAGCGUGGCAAAGUGGCUAUGGCGAGACUGCC, the self-cleavage amounted to 0.01.

Turning to GGCAGAGCUCAACAGAGCGUGGCAAAGAGGCUGUGGCUAGACUGCU, the self-cleavage was 0.09.

On to GGCAGAGCUCAACAGAGCGUGGCAAAGAGGCUGUGGCUAGACUGCG, for which the self-cleavage was determined as 0.1.

As for GGCAGAGCUCAACAUAGCGUGGCCAUGUGGCUGUGCCUAGACUGCC, the self-cleavage came out at 0.04.

With GGCAGAGCUCAACAUAGCGUGGCAAAGUGGCUGUGGCUUGACUCCC, the self-cleavage was 0.18.

In the case of GGCAGAGCUCAACAGAGCGUGGCAAAGAGGCUGUAGCUAGACUGCC, the self-cleavage was found to be 0.01.

GGCAGAGCUCAACAGAGCGUUGCAAAGUGGCUGUGGCCAGACUGCC: the self-cleavage came out at 0.

For the variant GGCAGAGCUCAACAGAGCGUGGCAAAGUUGCUGUGGCUAGACUGUG, the self-cleavage was found to be 0.11.

For GGCAGAGCUCAACAGAGCGUGGCAAAGUGGCUGUGGCUAGACUCAC, the self-cleavage came to 0.01.

In the case of GGCAGAGCUCAACAUAGCGUGGCUAAGUGGCUGUGGCUCGACUGCC, the self-cleavage came out at 0.01.

As for GGCAGAGCUCAACAGAGCGAGGCAAAGUGGUUGUGGCUAGACUGCC, the self-cleavage came out at 0.04.

In the case of GGCAGAGCUCAACAUUGCGUGUCAAAGUGGCUGCGGCUAGACUGCC, the self-cleavage is 0.13.

Turning to GGCAGAGCUCAACAGAGCUUGGCAAGGUGGCUGGGGCUAGACUCCC, the self-cleavage was determined as 0.

Regarding GGCAGAGCUCAACAGAGCGUGUCAAAGUGGCUGUGGCUAGACUUCC, the self-cleavage was 0.01.

As to GGCAGAGCUCAACAUAGCGUGGCUCAGUGGCUGUGGCUAGACUGCC, the self-cleavage was determined as 0.4.

On to GGCAGAGCUCAACAGAGCGUGGCAAAGUUACUGUAGCUAGACUGCC, for which the self-cleavage was determined as 0.02.

Turning to GGCAGAGCUCAACAUAGUGUGGUAAAGUGGCUGUGGCUAGACUGCA, the self-cleavage turned out to be 0.07.

Consider GGCAGAGCUCAACAUCGCGUGGCAAAGUGACUGUGGCUAGACUGCC, for which the self-cleavage is 0.02.

With GGCAGAGCUCAACAUAGCGUGGCACAGUGGAUGUGGCUAUACUGCC, the self-cleavage is 0.05.

GGCAGAGCUCAACAGAGCGUGGCAAAGAGGCUGAGGCUAGACUGCA: the self-cleavage came to 0.05.

As to GGCAGAGCUCAACAGAGCGUGGCAAACUGGCUGUGGAUAGACUGCC, the self-cleavage worked out at 0.01.

Consider GGCAGAGCUCAACAGAGCGUCGCAAAGUGGCCGUGGCUAGACUGCC, for which the self-cleavage came out at 0.02.

For the variant GGCAGAGCUCAACAUAGCGUGGCCAAGUGGCUGUGCCUAGACUGGC, the self-cleavage is 0.04.

Regarding GGCAGAGCUCAACAGAGCGCGGCAAAGUGGCUGUGGAUAGACUGCC, the self-cleavage was 0.02.

Take GGCAGAGCUCAACAGAGCGUGCCAAACUGGCUUGGGCUAGACUACC: the self-cleavage stood at 0.01.

With GGCAGAGCUCAACAGAGCGUGGCAAAGUGUCUGUGGCUAGACUGCG, the self-cleavage was 0.03.

With GGCAGAGCUCAACAGAGCCUGGCUAAGUGGCUUUGGCUACACGGCU, the self-cleavage came out at 0.

As for GGCAGAGCUCAACAGAGCGUGGCAAAGUGCCUGUGGCUAGACAGCC, the self-cleavage came to 0.01.

On to GGCAGAGCUCAACAUAGCGUGGCCAAGUGGCUGUGGCUAUACUGUC, for which the self-cleavage was found to be 0.04.

As to GGCAGAGCUCAACAGAGCGGGGCAAAGUGGCUGUGGCUCCACAGCA, the self-cleavage was determined as 0.

For the variant GGCAGAGCUCAACAGAGCGUGGCAAAGUGCCUGUGGUUAGACUGCC, the self-cleavage turned out to be 0.01.

For the variant GGCAGAGCUCAACAUCGCGUGGCAAAGUUGCUGUCGCUAGACUGCC, the self-cleavage was 0.81.

Regarding GGCAGAGCUCAACAGAGCGUAGCAAAGUUGCUGUGGCUCGACUGCC, the self-cleavage came to 0.02.

On to GGCAGAGCUCAACAGAGCGUGACAAAGUAGCUCUGGCUAGACUGCC, for which the self-cleavage was determined as 0.2.

With GGCAGAGCUCAACAUAGCGUGGCAAAGUGGCUGUGGCUAGGCAGCC, the self-cleavage turned out to be 0.
